# According to PubChem BioAssay AID504332 (National Center for Advancing Translational Sciences (NCATS), 2011):
# Out of some 350,000 compounds screened, about 31,000 (8.9%) were called active. This list was built around the results that the source calls inconclusive (neither active nor inactive); the mix of calls is not that of the screen. Calls come from the whole dose curve; as a rule, active = well fitted inhibition curve with a large enough effect; inconclusive = small, poorly fitted or top-dose-only effect; inactive = no such curve, though single readings can be large or run the other way. A potency beside an inconclusive call is a rough fit, not a confirmed value.
# Biological target: Histone-lysine N-methyltransferase EHMT2 (Homo sapiens) (UniProt Q96KQ7)
# Assay: qHTS Assay for Inhibitors of Histone Lysine Methyltransferase G9a; note: nearly all actives have a fitted effect of over 75% in size
# Conditions: G9a H3K9 monomethylation, AlphaScreen, 2 h; activity, negative = inhibition: at 59 µM (top of the series) unless noted
# Method in brief: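 G9a (20 nM) preincubated 15 min RT with compounds, then 500 nM biotinylated H3K9 peptide and 20 uM SAM added; 2 h RT reaction. Monomethyl-H3K9 product detected by AlphaScreen with anti-H3K9me1 antibody, streptavidin donor and anti-rabbit IgG acceptor beads.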
# % is set by controls: 0 for no effect and ±100 for the full control effect; potency is the fitted concentration of half-maximal effect; tags give direction and shape of the fitted curve.
# Chain of UniProt Q96KQ7 (Q96KQ7 whole entry, looked up): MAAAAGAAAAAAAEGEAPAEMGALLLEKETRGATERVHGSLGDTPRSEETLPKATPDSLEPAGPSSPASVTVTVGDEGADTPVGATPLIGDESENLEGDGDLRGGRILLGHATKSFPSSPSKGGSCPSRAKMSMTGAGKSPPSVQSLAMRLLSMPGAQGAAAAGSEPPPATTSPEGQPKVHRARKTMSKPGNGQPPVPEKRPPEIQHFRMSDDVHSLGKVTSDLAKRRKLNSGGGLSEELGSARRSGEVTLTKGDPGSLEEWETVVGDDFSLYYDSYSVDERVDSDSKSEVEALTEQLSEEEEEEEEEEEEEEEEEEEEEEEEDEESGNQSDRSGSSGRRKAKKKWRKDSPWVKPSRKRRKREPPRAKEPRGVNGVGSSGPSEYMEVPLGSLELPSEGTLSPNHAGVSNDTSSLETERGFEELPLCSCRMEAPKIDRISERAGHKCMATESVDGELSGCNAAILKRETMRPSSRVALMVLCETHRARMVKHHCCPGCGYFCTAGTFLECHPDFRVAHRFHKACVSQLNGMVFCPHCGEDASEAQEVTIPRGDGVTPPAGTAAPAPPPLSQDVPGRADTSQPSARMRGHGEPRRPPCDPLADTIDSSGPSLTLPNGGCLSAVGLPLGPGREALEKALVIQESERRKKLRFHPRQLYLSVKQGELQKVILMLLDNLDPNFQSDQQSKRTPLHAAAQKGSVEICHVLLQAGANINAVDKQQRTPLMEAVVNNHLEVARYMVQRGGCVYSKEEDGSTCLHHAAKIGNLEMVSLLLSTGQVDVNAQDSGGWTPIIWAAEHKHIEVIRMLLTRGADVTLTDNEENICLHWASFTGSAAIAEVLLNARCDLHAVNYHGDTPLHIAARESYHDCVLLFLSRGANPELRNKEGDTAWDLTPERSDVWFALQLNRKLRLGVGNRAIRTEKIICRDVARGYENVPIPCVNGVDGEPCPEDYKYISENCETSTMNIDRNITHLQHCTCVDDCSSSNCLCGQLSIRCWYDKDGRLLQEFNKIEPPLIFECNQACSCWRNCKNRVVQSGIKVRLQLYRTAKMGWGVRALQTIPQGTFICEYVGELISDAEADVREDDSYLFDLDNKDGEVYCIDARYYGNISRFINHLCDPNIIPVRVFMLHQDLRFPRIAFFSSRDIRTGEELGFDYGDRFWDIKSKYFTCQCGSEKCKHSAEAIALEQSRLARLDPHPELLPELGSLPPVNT
SMILES,Potency,"activity, negative = inhibition"
COc1ccccc1Nc1sc(C(=O)c2ccc3c(c2)OCO3)c(N)c1S(=O)(=O)c1ccccc1,inactive,
CC1=CC(C)C2COC(c3ccc[n+](C)c3)C1C2C (configuration not stated),active: 7.08 µM,
CC(=O)Oc1oc(-c2ccccc2)nc1C=Nc1ccccc1,active: 50.1 µM,
Cc1cccc(C(=O)NNC(=O)c2ccc(Br)cc2)c1,inactive,
O=C(COC(=O)c1ccccc1)Nc1ccc(Cl)cn1,inactive,
S=C(NCc1ccco1)NCc1ccccc1Cl,inactive,
CCc1c(C)sc(NC(=O)CSc2nc3c(c(C(F)(F)F)n2)CCc2ccccc2-3)c1C#N,"inconclusive: 10 µM [inhibitor, partial curve, poor fit]",
CCCCN(CCCC)CCCNC(=O)c1ccc2nc(-c3ccccc3NC(C)=O)c(=O)[nH]c2c1,"inconclusive: 89.1 µM [inhibitor, single point]",
COc1cc(CNc2nc3c(C)cc(C)cc3s2)ccc1O,active: 44.7 µM,
CCN(CC)C(=O)CSc1nc2c(sc(=S)n2-c2ccccc2)c(=O)n1Cc1ccco1,active: 39.8 µM,
C=CCn1c(C)cc(-c2csc(NC(=O)C3=COCCO3)n2)c1C,active: 44.7 µM,
CCOC(=O)c1ccc(NC(=O)CSc2nnc(Cn3c(=O)sc4ccccc43)n2C)cc1,"inconclusive: 70.8 µM [inhibitor, single point]",
CCCOc1ccc(/C=N/Nc2ccccc2[N+](=O)[O-])c(O)c1,"inconclusive: 0.316 µM [inhibitor, full curve, poor fit]",
COc1ccc(CCNC(=O)CCCc2ccccc2)cc1OC,inactive,
C=C(C)C1CC=C(C)/C(=N/NC(=O)c2cccc([N+](=O)[O-])c2)C1 (configuration not stated),inactive,
N#CC(c1ccncc1)(c1ncc(C(F)(F)F)cc1Cl)N1CCOCC1 (configuration not stated),active: 39.8 µM,
CCn1cc(C(=O)NCc2ccccc2OC)c(=O)c2cc(S(=O)(=O)N(C)C)ccc21,"inconclusive: 44.7 µM [inhibitor, partial curve, poor fit]",
CCN1CCN(C(=S)Nc2ccc3nc(N4CCN(C)CC4)cc(C)c3c2)CC1,"inconclusive: 20 µM [inhibitor, single point]",
CSc1ccc(/C=N/N2CCN(Cc3ccc(Cl)cc3)CC2)cc1,"inconclusive: 15.8 µM [inhibitor, full curve]",
c1ccc(NC2=Nc3cccc4cccc2c34)cc1,active: 25.1 µM,
COc1ccc2nc(NC(=O)Nc3ccccc3)sc2c1,"inconclusive: 35.5 µM [inhibitor, single point]",inactive: -6.59% [at 12.7 µM]
